From patent publication US20250042997A1 (PHYLAXIS BIOSCIENCE, published 2025) come the findings set out here.

Broadly, the Kd is a measure of binding affinity in units of concentration. A higher Kd goes with lower affinity.

Assay [1] deals with T1, human Siglec-8 (full-length, on transfected CHO or 293 cells, or native on human eosinophils) (human, UniProt Q9NYZ4 17-499). As to the kind of experiment: flow cytometry on freshly isolated human eosinophils, tetravalent Fc SDIE format. From the text: (§1) The anti-Siglec8 G2 VHH sequence hzG2v14 underwent further modification to minimize binding to siglec-2 (CD22) and other siglec proteins (see, below), reduce potential immunogenicity and optimize manufacturability. Humanized tetravalent Siglec-8 agonist antibodies comprising hzG2v14 (SEQ ID NO: 9), hzG2v47 (SEQ ID NO: 12), hzG2v51 (SEQ ID NO: 17), hzG2v52 (SEQ ID NO: 22), hzG2v53 (SEQ ID NO: 27), hzG2v54 (SEQ ID NO: 32) or hzG2v55 (SEQ ID NO: 37) were linked to an engineered Fe SDIE region (described further in Example 5) via linker 2. Binding to human Siglec-8 on eosinophils was evaluated and compared to that of the afucosylated anti-Siglec-8 2E2 (2E2 Afuc) reference antibody by flow cytometry. Eosinophils were isolated from healthy donor whole blood using the StemCell EasySep™ direct human eosinophil isolation kit, diluted in FACS buffer, added at 10 k/well to a 96-well assay plate and incubated at 4° C. for 20 minutes with a titration series (10-12 point titration, 1:4 dilution) starting at 10 nM of the test articles. Following one wash with FACS buffer, an Alexa Fluor®647 AffiniPure Donkey Anti-Human Fcγ specific secondary antibody (Jackson ImmunoResearch) was added, and cells were incubated for 20 minutes at 4° C. Following one additional wash in FACS buffer, bound antibodies were detected via flow cytometry (NovoCyte 3000). Median fluorescent intensity was calculated using Novoexpress onboard software gating on SSC^high/CCR3⁺ cells. The dissociation constant (Kd) values from these studies are summarized in Table 3 and representative binding data for the tetravalent anti-Siglec8 antibodies comprising hzG2v52 (cx11913) and hzG2v53 (cx11914) is show in FIG. 4A. The pI of the VHH domains as determined using ExPasy are shown in Table 3, with a higher pI generally preferred for manufacturing.
(In flow cytometry, cells or beads pass a laser one at a time.)

In assay [2] the target is T1, human Siglec-8 (full-length, on …). The assay is described as follows: flow cytometry on freshly isolated human eosinophils.
From the text: as §1, with “Following one wash with FACS buffer, an Alexa Fluor®647 AffiniPure Donkey Anti-Human Fcγ specific secondary antibody (Jackson ImmunoResearch) was added, and cells were incubated for 20 minutes at 4° C.” left out, “The dissociation constant (Kd) values from these studies are summarized in Table 3 and representative binding data for the tetravalent anti-Siglec8 antibodies comprising hzG2v52 (cx11913) and hzG2v53 (cx11914) is show in FIG. 4A.” left out

T1 sequence (Q9NYZ4 17-499): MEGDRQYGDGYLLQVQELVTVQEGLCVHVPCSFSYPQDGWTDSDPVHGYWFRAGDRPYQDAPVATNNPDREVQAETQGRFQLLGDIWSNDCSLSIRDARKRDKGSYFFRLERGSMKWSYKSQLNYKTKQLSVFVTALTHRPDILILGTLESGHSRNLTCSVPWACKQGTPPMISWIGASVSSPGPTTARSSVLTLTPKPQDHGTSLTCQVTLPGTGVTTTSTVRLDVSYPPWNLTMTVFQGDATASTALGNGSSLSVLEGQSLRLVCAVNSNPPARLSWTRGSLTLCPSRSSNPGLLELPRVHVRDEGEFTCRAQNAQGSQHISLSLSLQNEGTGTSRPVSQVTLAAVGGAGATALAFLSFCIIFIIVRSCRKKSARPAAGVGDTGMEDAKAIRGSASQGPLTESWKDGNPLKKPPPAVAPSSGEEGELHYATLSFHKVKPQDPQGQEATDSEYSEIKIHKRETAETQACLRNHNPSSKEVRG

B1: humanized tetravalent Siglec-8 agonist antibody comprising hzG2v14, Fc SDIE (Fc fusion)
chain: EVQLLESGGGEVQPGGSLRLSCAASGSISIFSMYVVAWYRQAPGKEREWVAFIQRGGTANYAESAKGRFTISRDNAKNTVYLQMSSLRAEDTAVYYCNYINTDNEIGGPWGQGTLVTVKPGGSGGSEVQLLESGGGEVQPGGSLRLSCAASGSISIFSMYVVAWYRQAPGKEREWVAFIQRGGTANYAESAKGRFTISRDNAKNTVYLQMSSLRAEDTAVYYCNYINTDNEIGGPWGQGTLVTVKPGGGG[human IgG1 Fc with changes not shown]
notes: Homodimer through the Fc; also called cx11769
As to B1, binding in assay [1] was characterised by a dissociation constant (Kd) of 0.00812 nM.

B2: humanized tetravalent Siglec-8 agonist antibody comprising hzG2v47, Fc SDIE (Fc fusion)
chain: EVQLLESGGGEVQPGGSLRLSCAASGSISIFSDYVVAWYRQAPGKEREWVAFIQRGGTANYAESAKGRFTISRDNAKNTVYLQMSSLRAEDTAVYYCNYINTDNEIGGPWGQGTLVTVRPGGSGGSEVQLLESGGGEVQPGGSLRLSCAASGSISIFSDYVVAWYRQAPGKEREWVAFIQRGGTANYAESAKGRFTISRDNAKNTVYLQMSSLRAEDTAVYYCNYINTDNEIGGPWGQGTLVTVRPGGGG[human IgG1 Fc with changes not shown]
notes: Homodimer through the Fc
The molecule B2 gave a Kd in assay [1] of 0.00888 nM.

B3: humanized tetravalent Siglec-8 agonist antibody comprising hzG2v52, Fc SDIE (Fc fusion)
chain: EVQLLESGGGEVQPGGSLRLSCAASGSISIFSKYVVAWYRQAPGKEREWVAFIQRGGTANYAESAKGRFTISRDNAKNTVYLQMSSLRAEDTAVYYCNYINTDNEIGGPWGQGTLVTVEPGGSGGSEVQLLESGGGEVQPGGSLRLSCAASGSISIFSKYVVAWYRQAPGKEREWVAFIQRGGTANYAESAKGRFTISRDNAKNTVYLQMSSLRAEDTAVYYCNYINTDNEIGGPWGQGTLVTVEPGGGG[human IgG1 Fc with changes not shown]
notes: Homodimer through the Fc; also called cx11913
Regarding B3, the “fold higher affinity than the 2E2 Afuc comparator antibody” value in assay [2] is around 8 fold. In assay [1], this molecule showed a Kd of 0.012 nM.

B4: humanized tetravalent Siglec-8 agonist antibody comprising hzG2v53, Fc SDIE (Fc fusion)
chain: EVQLLESGGGEVQPGGSLRLSCAASGSISIFSKYVVAWYRQAPGKEREWVAFIQSGGTANYAESAKGRFTISRDNAKNTVYLQMSSLRAEDTAVYYCNYINTDNEIGGPWGQGTLVTVRPGGSGGSEVQLLESGGGEVQPGGSLRLSCAASGSISIFSKYVVAWYRQAPGKEREWVAFIQSGGTANYAESAKGRFTISRDNAKNTVYLQMSSLRAEDTAVYYCNYINTDNEIGGPWGQGTLVTVRPGGGG[human IgG1 Fc with changes not shown]
notes: Homodimer through the Fc; also called cx11914; tet-hzG2v53-SDIE
Regarding B4, the “fold higher affinity than the 2E2 Afuc comparator antibody” value in assay [2] was around 8 fold. In assay [1], this molecule displayed a Kd of 0.013 nM.

B5: humanized tetravalent Siglec-8 agonist antibody comprising hzG2v51, Fc SDIE (Fc fusion)
chain: EVQLLESGGGEVQPGGSLRLSCAASGSISIFSKYVVAWYRQAPGKEREWVAFIQRGGTANYAESAKDRFTISRDNAKNTVYLQMSSLRAEDTAVYYCNYINTDNEIGGPWGQGTLVTVRPGGSGGSEVQLLESGGGEVQPGGSLRLSCAASGSISIFSKYVVAWYRQAPGKEREWVAFIQRGGTANYAESAKDRFTISRDNAKNTVYLQMSSLRAEDTAVYYCNYINTDNEIGGPWGQGTLVTVRPGGGG[human IgG1 Fc with changes not shown]
notes: Homodimer through the Fc
In turn, B5 displayed a Kd in assay [1] of 0.119 nM.

B6: humanized tetravalent Siglec-8 agonist antibody comprising hzG2v54, Fc SDIE (Fc fusion)
chain: QVQLLESGGGEVQPGGSLRLSCAASGSISIFSKYVVAWYRQAPGKEREWVAFIQRGGTANYAESAKGRFTISRDNAKNTVYLQMSSLRAEDTAVYYCNYINTDNEIGGPWGQGTLVTVEPGGSGGSQVQLLESGGGEVQPGGSLRLSCAASGSISIFSKYVVAWYRQAPGKEREWVAFIQRGGTANYAESAKGRFTISRDNAKNTVYLQMSSLRAEDTAVYYCNYINTDNEIGGPWGQGTLVTVEPGGGG[human IgG1 Fc with changes not shown]
notes: Homodimer through the Fc
B6 yielded a Kd in assay [1] of 0.036 nM.

B7: humanized tetravalent Siglec-8 agonist antibody comprising hzG2v55, Fc SDIE (Fc fusion)
chain: QVQLLESGGGEVQPGGSLRLSCAASGSISIFSDYVVAWYRQAPGKEREWVAFIQRGGTANYAESAKGRFTISRDNAKNTVYLQMSSLRAEDTAVYYCNYINTDNEIGGPWGQGTLVTVRPGGSGGSQVQLLESGGGEVQPGGSLRLSCAASGSISIFSDYVVAWYRQAPGKEREWVAFIQRGGTANYAESAKGRFTISRDNAKNTVYLQMSSLRAEDTAVYYCNYINTDNEIGGPWGQGTLVTVRPGGGG[human IgG1 Fc with changes not shown]
notes: Homodimer through the Fc
In assay [1], B7 showed a Kd of 0.01 nM.
